Read-outs that look alike come from different tables or passages of the source. Non-standard residues stand in square brackets, D forms with d. Residues, ends and D or L forms follow the SMILES beside them. *: point of attachment. dPhe(4-NHCONH2) = NC(=O)Nc1ccc(C[C@@H](N)C(=O)O)cc1; Dihydroorotyl(S) = O=C1C[C@@H](C(=O)*)NC(=O)N1; dPhe(4-Cl) = N[C@H](Cc1ccc(Cl)cc1)C(=O)O; Phe(4-NH2) = Nc1ccc(C[C@H](N)C(=O)O)cc1; d2Nal = N[C@H](Cc1ccc2ccccc2c1)C(=O)O; Lys(iPr) = CC(C)NCCCC[C@H](N)C(=O)O; d3Pal = N[C@H](Cc1cccnc1)C(=O)O
How the values were obtained:
SARS-CoV-2 [1] = type: in vivo
SARS-CoV-2 [2] = type: in vivo, human
SARS-CoV-2 [3] = tested on: SARS-CoV-2
SARS-CoV-2 [4] = type: in vivo, human; remark: listed apart in the source
SARS-CoV-2 [5] = conditions: monitored one month; 300 mg orally twice daily; of 20 subjects (standard care 3 of 20)
SARS-CoV-2 [6] = tested on: SARS-CoV-2; remark: listed apart in the source
SARS-CoV-2 [7] = type: in vivo; conditions: monitored one month; 75 mg/m2 IV over 1 hour; of 8 subjects (standard care 2 of 8)
SARS-CoV-2 [8] = type: in vivo, human; conditions: monitored one month; 300 mg orally once daily; of 50 subjects (standard care 8 of 40)
Protocol: Example 19: A controlled study was conducted on 90 male patients with average age of 51 years old. […] The treatment arm was prescribed nilutamide (300 mg) orally once daily at the start of the trial, the control arm received standard care.
The patients BCRSS score was 1.3.

[9] = Brescia-COVID Respiratory Severity Scale, admitted patients only

## C[C@]12CC[C@H](O)CC1=CC[C@@H]1[C@@H]2CC[C@]2(C)C(c3cccnc3)=CC[C@@H]12 [abiraterone]
SARS-CoV-2 [1]; 4 admitted patients (standard care 4.7)
  average BCRSS score of admitted patients: 1.8
SARS-CoV-2 [1]; monitored one month, 500 mg twice daily, of 75 subjects (standard care 15 of 75)
  subjects admitted to the hospital after their first visit: 4 subjects

## CNC(=O)c1ccc(N2C(=S)N(c3cnc(C#N)c(C(F)(F)F)c3)C(=O)C23CCC3)cc1F [apalutamide]
SARS-CoV-2 [2]; Brescia-COVID Respiratory Severity Scale, 13 admitted patients (placebo 5.4)
  average BCRSS score of admitted patients: 3.2
SARS-CoV-2 [2]; monitored one month, 240 mg (60 mg, 4 tablets daily), of 200 subjects (placebo 49 of 200)
  subjects admitted to the hospital after their first visit: 13 subjects

## CC(O)(CS(=O)(=O)c1ccc(F)cc1)C(=O)Nc1ccc(C#N)c(C(F)(F)F)c1 (stereo not shown) [bicalutamide]
SARS-CoV-2 [3]; [9]
  average BCRSS score of admitted patients: 5.3
SARS-CoV-2 [3]; monitored one month, bicalutamide 50 mg 1 tablet daily, each arm of 88
  subjects admitted to the hospital after their first visit: 9 subjects
SARS-CoV-2 [4]; 6 admitted patients (standard care 4.1)
  average BCRSS score of admitted patients: 1.9
SARS-CoV-2 [4]; monitored one month, 50 mg once daily, of 50 subjects (standard care 17 of 50)
  subjects admitted to the hospital after their first visit: 6 subjects

## CC(O)c1cc(C(=O)N[C@@H](C)Cn2ccc(-c3ccc(C#N)c(Cl)c3)n2)[nH]n1 (stereo partly shown) [darolutamide]
SARS-CoV-2 [5]
  subjects admitted to the hospital after their first visit: 1 subjects

## CC(=O)N[C@H](Cc1ccc2ccccc2c1)C(=O)N[C@H](Cc1ccc(Cl)cc1)C(=O)N[C@H](Cc1cccnc1)C(=O)N[C@@H](CO)C(=O)N[C@@H](Cc1ccc(NC(=O)[C@@H]2CC(=O)NC(=O)N2)cc1)C(=O)N[C@H](Cc1ccc(NC(N)=O)cc1)C(=O)N[C@@H](CC(C)C)C(=O)N[C@@H](CCCCNC(C)C)C(=O)N1CCC[C@H]1C(=O)N[C@H](C)C(N)=O [degarelix] (Ac-[d2Nal][dPhe(4-Cl)][d3Pal]S[Phe(4-NH2)](Dihydroorotyl(S))[dPhe(4-NHCONH2)]L[Lys(iPr)]P[dA]-NH2)
SARS-CoV-2 [6]; [9]
  average BCRSS score of admitted patients: 4.6
SARS-CoV-2 [6]; monitored one month, degarelix 120 mg subcutaneous at start, combination arm of 80, degarelix alone of 60
  subjects admitted to the hospital after their first visit: 12 subjects

## CC(=O)O[C@@]12CO[C@@H]1C[C@H](O)[C@@]1(C)C(=O)[C@H](O)C3=C(C)[C@@H](OC(=O)[C@H](O)[C@@H](NC(=O)OC(C)(C)C)c4ccccc4)C[C@@](O)([C@@H](OC(=O)c4ccccc4)[C@H]21)C3(C)C [docetaxel]
SARS-CoV-2 [7]
  subjects admitted to the hospital after their first visit: 0 subjects

## CC1(C)NC(=O)N(c2ccc([N+](=O)[O-])c(C(F)(F)F)c2)C1=O [nilutamide]
SARS-CoV-2 [8]
  subjects admitted to the hospital after their first visit: 3 subjects

Reference: patent US20210299101A1, “SYSTEMS, METHODS, AND KITS FOR DIAGNOSTICS AND TREATMENT OF VIRAL RESPIRATORY INFECTION” (priority 2020, published 2021)
